In article PMC3335862, “Novel Small-Molecule Inhibitors of Hepatitis C Virus Entry Block Viral Spread and Promote Viral Clearance in Cell Culture” (PLoS ONE, 2012):

Test system: GT 1b/2a HCV
Assay: HCV cell culture infection assay (Renilla luciferase), GT 1b/2a
Conditions: at the highest concentration tested

Structure (SMILES): CS(=O)(=O)N1CCC(Nc2nc(Nc3cccc(C(F)(F)F)c3)nc(OCC(F)(F)F)n2)CC1 [PRO0371155]
- anti-viral activity against GT 1b/2a HCV: no anti-viral activity
